We go through two molecules from patent US20130064788A1 (ELEVEN BIOTHERAPEUTICS, published 2013).

The chains are these.
T1: IL-17RC extracellular domain (human, UniProt Q8NAC3 21-538)
T1 construct: Expressed in 293S GnTI- cells with and without a C-terminal BirA tag; An additional C-terminal Fc tag was cleaved by 3C protease
T1 sequence: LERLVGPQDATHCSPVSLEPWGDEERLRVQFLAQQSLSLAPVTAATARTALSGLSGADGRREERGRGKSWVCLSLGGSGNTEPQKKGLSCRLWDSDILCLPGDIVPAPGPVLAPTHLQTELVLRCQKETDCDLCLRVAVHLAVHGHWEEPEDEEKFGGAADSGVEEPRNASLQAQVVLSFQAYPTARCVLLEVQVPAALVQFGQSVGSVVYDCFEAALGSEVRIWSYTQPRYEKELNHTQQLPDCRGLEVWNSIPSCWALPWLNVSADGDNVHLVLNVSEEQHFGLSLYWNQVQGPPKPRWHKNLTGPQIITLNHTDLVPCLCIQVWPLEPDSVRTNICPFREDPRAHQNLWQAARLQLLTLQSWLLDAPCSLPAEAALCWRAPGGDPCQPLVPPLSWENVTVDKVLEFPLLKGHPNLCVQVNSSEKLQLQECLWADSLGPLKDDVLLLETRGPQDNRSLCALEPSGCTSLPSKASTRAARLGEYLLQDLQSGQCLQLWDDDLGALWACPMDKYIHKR

T2: pre-assembled IL-17RC-IL-17A complex (IL-17A captured by immobilised IL-17RC) (human, UniProt Q8NAC3 21-538; Q16552 25-155, C-terminal biotin on BirA tag)
T2 construct: One receptor and one IL-17A dimer on the SPR chip; also called existing IL-17RC-IL-17A complex
T2 sequence 1: T1 sequence
T2 sequence 2: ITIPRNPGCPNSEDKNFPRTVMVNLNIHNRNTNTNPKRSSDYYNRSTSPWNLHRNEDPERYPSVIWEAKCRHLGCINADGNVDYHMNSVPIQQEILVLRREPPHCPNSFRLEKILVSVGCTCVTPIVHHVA

T3: pre-assembled IL-17RB-IL-25 complex (IL-25 captured by immobilised IL-17RB) (human, UniProt Q9NRM6 18-292; Q9H293 33-177, C-terminal biotin on BirA tag)
T3 construct: One receptor and one IL-25 dimer on the SPR chip
T3 sequence 1: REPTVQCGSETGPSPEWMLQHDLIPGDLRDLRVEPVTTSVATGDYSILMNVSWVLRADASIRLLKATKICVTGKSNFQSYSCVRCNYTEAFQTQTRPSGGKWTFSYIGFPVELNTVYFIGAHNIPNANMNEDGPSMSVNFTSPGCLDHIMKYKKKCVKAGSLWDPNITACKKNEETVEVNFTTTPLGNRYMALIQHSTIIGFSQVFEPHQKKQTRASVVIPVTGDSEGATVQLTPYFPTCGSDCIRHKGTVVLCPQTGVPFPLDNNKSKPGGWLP
T3 sequence 2: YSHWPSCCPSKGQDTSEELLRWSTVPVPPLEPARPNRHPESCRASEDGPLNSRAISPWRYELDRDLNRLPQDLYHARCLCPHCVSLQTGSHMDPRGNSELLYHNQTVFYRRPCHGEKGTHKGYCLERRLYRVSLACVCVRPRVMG

T4: pre-assembled IL-17RA-IL-17A complex (IL-17A captured by immobilised IL-17RA) (human, UniProt Q96F46 32-317; Q16552 25-155, C-terminal biotin on BirA tag)
T4 construct: For tags see m1 and m3
T4 sequence 1: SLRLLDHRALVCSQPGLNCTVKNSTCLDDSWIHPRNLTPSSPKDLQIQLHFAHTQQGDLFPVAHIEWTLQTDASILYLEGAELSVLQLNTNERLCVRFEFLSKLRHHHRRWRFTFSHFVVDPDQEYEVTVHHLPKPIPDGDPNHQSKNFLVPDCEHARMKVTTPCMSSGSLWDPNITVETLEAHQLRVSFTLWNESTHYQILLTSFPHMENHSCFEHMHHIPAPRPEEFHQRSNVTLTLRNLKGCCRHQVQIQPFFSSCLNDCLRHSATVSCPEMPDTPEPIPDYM
T4 sequence 2: T2 sequence 2

B1: IL-17A homodimer (ligand)
chain: not shown
notes: Expressed by High Five cells with a C-terminal hexa-His tag; also called IL-17A/A; not shown: C-terminal hexa-His tag
B2: human IL-17RA extracellular domain (ECD) (receptor)
chain: not shown
notes: For SPR it was made with and without a C-terminal BirA ligase tag: the biotinylated form was immobilised and the other was injected; For the crystal it was treated with endoglycosidase H and lysine-methylated; also called IL-17RA ECD; IL-17RA ectodomain

Assay [1] has as its target B2. Description: SPR, comparison of the two KD values. As for the experimental part: (§1) Binding affinities were calculated via surface plasmon resonance (SPR) on a BIACORE® T100 (GE Healthcare). C-terminally biotinylated IL-17 receptors were coupled to immobilized streptavidin on either an SA or CM4-sensor chip (GE Healthcare). An irrelevant, biotinylated protein was captured at equivalent immobilization densities to control flow cells. To measure the second receptor binding interaction, the cytokine was first captured to the immobilized receptor, followed by the second receptor injection. Low coupling densities (200-400 RU) and excess cytokine concentrations were used to optimize the number of cytokine homodimers bound to a single receptor. The surface was regenerated using 3 M MgCl₂ between each cycle. For kinetic experiments, a flow rate of 50 μl/min was used. Data was analyzed using BIACORE® T100 evaluation software Version 2.0 (GE Healthcare). Affinities are reported as the mean of at least two independent experiments±the standard error of the mean (s.e.m.).
(In general: Surface plasmon resonance follows binding to a sensor surface in real time, without labels.)

The target of assay [2] is B2. In words: SPR, Biacore T100; biotinylated receptor on streptavidin chip, cytokine injected. From the text: (§2) Whilst others have reported the binding affinities of IL-17RA and IL-17RC for IL-17A and IL-17F (7, 22), we considered it pertinent to assess the binding affinity of the second receptor-binding site. The strategy was to immobilize one receptor on the SPR chip at a low coupling density in order to minimize possible homo-dimerization (e.g. cross-linking) of the receptors on the chip. The dimeric IL-17 cytokine was then captured by this receptor so that each receptor would be bound to one dimeric IL-17 ligand, leaving an exposed and accessible second receptor-binding site. The second receptor was subsequently passed over the preformed receptor-cytokine complexes to measure the affinity of the second receptor-binding event. In this fashion, the complex was assembled in a stepwise manner and each of the binding affinities was measured (FIG. 3).
(§3) Binding affinities were calculated via surface plasmon resonance (SPR) on a BIACORE® T100 (GE Healthcare). C-terminally biotinylated IL-17 receptors were coupled to immobilized streptavidin on either an SA or CM4-sensor chip (GE Healthcare). An irrelevant, biotinylated protein was captured at equivalent immobilization densities to control flow cells. […] Data was analyzed using BIACORE® T100 evaluation software Version 2.0 (GE Healthcare). […]

Assay [3] has as its target T1, IL-17RC extracellular domain. The description is as above.
Description: as §2, §3

Assay [4] has as its target T2, pre-assembled IL-17RC-IL-17A complex …. Description: SPR; second receptor injected over IL-17A captured by immobilised IL-17RC.
Description: as §2, §3

For assay [5], the target named is T3, pre-assembled IL-17RB-IL-25 complex …. In words: SPR; second receptor injected over IL-25 captured by immobilised IL-17RB. As for the experimental part:
IL-17RA has been implicated in IL-17E (also known as IL-25) signaling together with IL-17RB (23). IL-25 promotes Th2 inflammatory responses and shares approximately ˜20% identity with IL-17A and IL-17F. […] We hypothesized that IL-17RA may only bind IL-25 once IL-25 is captured by IL-17RB. To test this hypothesis, we immobilized IL-17RB on an SPR chip, captured IL-25 and measured the affinity of IL-17RA for the IL-17RB-IL-25 complex. […] At concentrations up to 50 μM, no interaction could be observed between IL-17RA and IL-25, or between the IL-17RB-IL-25 complex and a second IL-17RB molecule.
as §1, with “The surface was regenerated using 3 M MgCl₂ between each cycle. For kinetic experiments, a flow rate of 50 μl/min was used.” left out, “Affinities are reported as the mean of at least two independent experiments±the standard error of the mean (s.e.m.).” left out

For assay [6], the target named is T4, pre-assembled IL-17RA-IL-17A complex …. In words: SPR; second receptor injected over IL-17A captured by immobilised IL-17RA.
Description: as §2, §3

In general, Kd refers to the constant that tells how readily two partners part at equilibrium. A higher Kd goes with a looser complex. In the case of B1, the “fold higher affinity than IL-17F” value in assay [1] is approximately 100 fold. The Kd in assay [2] was 2.8 nM; in assay [3], 1.2 nM.
Consider B2, for which the Kd in assay [4] was found to be 162 nM; in assay [5] it was 14100 nM; in assay [6], 3100 nM.
